Here are results for nine variants from the supplement of paper PMC12217912.

The other results are listed elsewhere or left out. The full chains were built here from the parent and the listed change. Values near 0.05 are background.

The labels stand for the following.
B1: TEV protease; numbered along this chain (parent)
chain: MGESLFKGPRDYNPISSSICHLTNESDGHTTSLYGIGFGPFIITNKHLFRRNNGTLVVQSLHGVFKVKDTTTLQQHLVDGRDMIIIRMPKDFPPFPQKLKFREPQREERICLVTTNFQTKSMSSMVSDTSCTFPSGDGIFWKHWIQTKDGQCGSPLVSTRDGFIVGIHSASNFTNTNNYFTSVPKNFMELLTNQEAQQWVSGWRLNADSVLWGGHKVFMVKPEEPFQPVKEATQL

This assay covers variants of B1. The assay can be described thus: raw area under fraction-flipped curve 0-4 h after induction (AUC4h, not background-subtracted), DNA-recorder readout of cleavage of the substrate (dimensionless); higher = more cleavage of the substrate by the protease variant. Conditions: temperature: 34 °C; time window: 0-4 h after rhamnose induction. On the procedure: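 In vivo DNA recorder in E. coli TOP10(DE3) ΔrhaA at 34 °C. Each TEVp single-site mutant (parent TEVp 0) is paired with a single-site variant of the 7-mer TEVs (canonical ENLYFQ|S). The substrate sits between flexible linkers in a Bxb1-sfGFP-TEVs-SsrA fusion, so cleavage stabilises Bxb1 and speeds flipping of a recombination array, read by NGS. The value is the raw area under the fraction-flipped curve over 0-4 h after rhamnose induction (AUC4h), with ≥20 reads per time point. It is not background-subtracted; inactive controls average about 0.047.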
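Note: Bxb1 expression induced with 0.2% (w/v) L-rhamnose at OD600 near 0.5, cultures sampled hourly, flipped fraction per protease–substrate barcode pair counted by paired-end Illumina sequencing.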

For the variant MGESLFKGPRDYNPISSSICHNTNESDGHTTSLYGIGFGPFIITNKHLFRRNNGTLVVQSLHGVFKVKDTTTLQQHLVDGRDMIIIRMPKDFPPFPQKLKFREPQREERICLVTTNFQTKSMSSMVSDTSCTFPSGDGIFWKHWIQTKDGQCGSPLVSTRDGFIVGIHSASNFTNTNNYFTSVPKNFMELLTNQEAQQWVSGWRLNADSVLWGGHKVFMVKPEEPFQPVKEATQL [L22N], the “area with substrate ENLYAQS” value turned out to be 0.0544, the “area with substrate ENLYDQS” value was 0.045, the “area with substrate ENLYEQS” value is 0.0702 and the “area with substrate ENLYGQS” value amounted to 0.0436. The “area with substrate ENLYHQS” value was 0.0525, the “area with substrate ENLYIQS” value is 0.0477, the “area with substrate ENLYKQS” value worked out at 0.0386 and the “area with substrate ENLYMQS” value is 0.0623. The “area with substrate ENLYNQS” value is 0.0477, the “area with substrate ENLYPQS” value came out at 0.0441, the “area with substrate ENLYQQS” value was determined as 0.0444 and the “area with substrate ENLYRQS” value came out at 0.0474. For the same variant, the “area with substrate ENLYTQS” value was 0.0501 and the “area with substrate ENLYWQS” value worked out at 0.034.

For the variant MGESLFKGKRDYNPISSSICHLTNESDGHTTSLYGIGFGPFIITNKHLFRRNNGTLVVQSLHGVFKVKDTTTLQQHLVDGRDMIIIRMPKDFPPFPQKLKFREPQREERICLVTTNFQTKSMSSMVSDTSCTFPSGDGIFWKHWIQTKDGQCGSPLVSTRDGFIVGIHSASNFTNTNNYFTSVPKNFMELLTNQEAQQWVSGWRLNADSVLWGGHKVFMVKPEEPFQPVKEATQL [P9K], the “area with substrate ENLYAQS” value was 0.0705, the “area with substrate ENLYDQS” value came to 0.0697, the “area with substrate ENLYGQS” value amounted to 0.072 and the “area with substrate ENLYKQS” value was 0.0606. Besides, the “area with substrate ENLYMQS” value stood at 0.0851, the “area with substrate ENLYQQS” value came out at 0.0519, the “area with substrate ENLYVQS” value turned out to be 0.0905 and the “area with substrate ENLYWQS” value came to 0.0848.

As to MGESLFKGYRDYNPISSSICHLTNESDGHTTSLYGIGFGPFIITNKHLFRRNNGTLVVQSLHGVFKVKDTTTLQQHLVDGRDMIIIRMPKDFPPFPQKLKFREPQREERICLVTTNFQTKSMSSMVSDTSCTFPSGDGIFWKHWIQTKDGQCGSPLVSTRDGFIVGIHSASNFTNTNNYFTSVPKNFMELLTNQEAQQWVSGWRLNADSVLWGGHKVFMVKPEEPFQPVKEATQL [P9Y], the “area with substrate ENLYAQS” value was determined as 0.0813, the “area with substrate ENLYDQS” value was found to be 0.0677, the “area with substrate ENLYEQS” value was found to be 0.0895 and the “area with substrate ENLYHQS” value came to 0.0712. Moreover, the “area with substrate ENLYIQS” value came out at 0.12, the “area with substrate ENLYMQS” value worked out at 0.0911, the “area with substrate ENLYNQS” value stood at 0.0835 and the “area with substrate ENLYQQS” value stood at 0.0618. In addition, the “area with substrate ENLYRQS” value stood at 0.0525, the “area with substrate ENLYSQS” value was 0.0898, the “area with substrate ENLYVQS” value was 0.119 and the “area with substrate ENLYWQS” value came to 0.0793. In addition, the “area with substrate ENLYYQS” value came to 0.0775.

Take MGESLFKGPRDYNPISSSIPHLTNESDGHTTSLYGIGFGPFIITNKHLFRRNNGTLVVQSLHGVFKVKDTTTLQQHLVDGRDMIIIRMPKDFPPFPQKLKFREPQREERICLVTTNFQTKSMSSMVSDTSCTFPSGDGIFWKHWIQTKDGQCGSPLVSTRDGFIVGIHSASNFTNTNNYFTSVPKNFMELLTNQEAQQWVSGWRLNADSVLWGGHKVFMVKPEEPFQPVKEATQL [C20P]: the “area with substrate ENLYAQS” value amounted to 0.0691, the “area with substrate ENLYCQS” value turned out to be 0.0511, the “area with substrate ENLYDQS” value is 0.0419 and the “area with substrate ENLYEQS” value is 0.0503. Also, the “area with substrate ENLYGQS” value was 0.0521, the “area with substrate ENLYHQS” value came out at 0.0535, the “area with substrate ENLYIQS” value turned out to be 0.0568 and the “area with substrate ENLYKQS” value is 0.0474. Besides, the “area with substrate ENLYLQS” value was determined as 0.0603, the “area with substrate ENLYMQS” value amounted to 0.0579, the “area with substrate ENLYNQS” value is 0.0451 and the “area with substrate ENLYPQS” value was found to be 0.0432. Further, the “area with substrate ENLYQQS” value turned out to be 0.052, the “area with substrate ENLYRQS” value was determined as 0.0466, the “area with substrate ENLYTQS” value amounted to 0.0631 and the “area with substrate ENLYVQS” value came to 0.0758. The “area with substrate ENLYWQS” value amounted to 0.0495.

Consider MGESLFKGPRDYNPISSEICHLTNESDGHTTSLYGIGFGPFIITNKHLFRRNNGTLVVQSLHGVFKVKDTTTLQQHLVDGRDMIIIRMPKDFPPFPQKLKFREPQREERICLVTTNFQTKSMSSMVSDTSCTFPSGDGIFWKHWIQTKDGQCGSPLVSTRDGFIVGIHSASNFTNTNNYFTSVPKNFMELLTNQEAQQWVSGWRLNADSVLWGGHKVFMVKPEEPFQPVKEATQL [S18E], for which the “area with substrate ENLYAQS” value was found to be 0.0724, the “area with substrate ENLYDQS” value worked out at 0.0618, the “area with substrate ENLYGQS” value was 0.0641 and the “area with substrate ENLYHQS” value was found to be 0.0713. Besides, the “area with substrate ENLYIQS” value worked out at 0.144, the “area with substrate ENLYMQS” value came to 0.0874, the “area with substrate ENLYNQS” value was 0.0615 and the “area with substrate ENLYPQS” value worked out at 0.0799. The “area with substrate ENLYQQS” value was 0.0448, the “area with substrate ENLYRQS” value turned out to be 0.0605, the “area with substrate ENLYTQS” value was 0.0735 and the “area with substrate ENLYVQS” value was determined as 0.137. In addition, the “area with substrate ENLYWQS” value stood at 0.0808 and the “area with substrate ENLYYQS” value amounted to 0.0623.

As to MGESLFKGPRHYNPISSSICHLTNESDGHTTSLYGIGFGPFIITNKHLFRRNNGTLVVQSLHGVFKVKDTTTLQQHLVDGRDMIIIRMPKDFPPFPQKLKFREPQREERICLVTTNFQTKSMSSMVSDTSCTFPSGDGIFWKHWIQTKDGQCGSPLVSTRDGFIVGIHSASNFTNTNNYFTSVPKNFMELLTNQEAQQWVSGWRLNADSVLWGGHKVFMVKPEEPFQPVKEATQL [D11H], the “area with substrate ENLYAQS” value is 0.0758, the “area with substrate ENLYDQS” value was determined as 0.0626, the “area with substrate ENLYEQS” value came out at 0.0699 and the “area with substrate ENLYGQS” value is 0.0652. Further, the “area with substrate ENLYHQS” value came to 0.0673, the “area with substrate ENLYKQS” value is 0.0537, the “area with substrate ENLYMQS” value is 0.0846 and the “area with substrate ENLYNQS” value came out at 0.0654. Besides, the “area with substrate ENLYPQS” value worked out at 0.0773, the “area with substrate ENLYQQS” value was determined as 0.0619, the “area with substrate ENLYRQS” value was found to be 0.0715 and the “area with substrate ENLYSQS” value came to 0.0758. In addition, the “area with substrate ENLYVQS” value amounted to 0.118, the “area with substrate ENLYWQS” value was 0.0777 and the “area with substrate ENLYYQS” value is 0.0834.

Regarding MGESLFKGPRNYNPISSSICHLTNESDGHTTSLYGIGFGPFIITNKHLFRRNNGTLVVQSLHGVFKVKDTTTLQQHLVDGRDMIIIRMPKDFPPFPQKLKFREPQREERICLVTTNFQTKSMSSMVSDTSCTFPSGDGIFWKHWIQTKDGQCGSPLVSTRDGFIVGIHSASNFTNTNNYFTSVPKNFMELLTNQEAQQWVSGWRLNADSVLWGGHKVFMVKPEEPFQPVKEATQL [D11N], the “area with substrate ENLYAQS” value was found to be 0.0776, the “area with substrate ENLYDQS” value was 0.0655, the “area with substrate ENLYEQS” value turned out to be 0.0661 and the “area with substrate ENLYGQS” value is 0.0626. The “area with substrate ENLYIQS” value was 0.127, the “area with substrate ENLYKQS” value was 0.0617, the “area with substrate ENLYLQS” value is 0.0684 and the “area with substrate ENLYMQS” value was found to be 0.0809. The “area with substrate ENLYNQS” value was determined as 0.0658, the “area with substrate ENLYPQS” value was 0.0627, the “area with substrate ENLYQQS” value turned out to be 0.0662 and the “area with substrate ENLYRQS” value worked out at 0.049. Also, the “area with substrate ENLYSQS” value is 0.0612, the “area with substrate ENLYWQS” value stood at 0.102 and the “area with substrate ENLYYQS” value came out at 0.0748.

Take MGESLFKGPRYYNPISSSICHLTNESDGHTTSLYGIGFGPFIITNKHLFRRNNGTLVVQSLHGVFKVKDTTTLQQHLVDGRDMIIIRMPKDFPPFPQKLKFREPQREERICLVTTNFQTKSMSSMVSDTSCTFPSGDGIFWKHWIQTKDGQCGSPLVSTRDGFIVGIHSASNFTNTNNYFTSVPKNFMELLTNQEAQQWVSGWRLNADSVLWGGHKVFMVKPEEPFQPVKEATQL [D11Y]: the “area with substrate ENLYAQS” value came out at 0.0669, the “area with substrate ENLYDQS” value turned out to be 0.0656, the “area with substrate ENLYEQS” value is 0.0706 and the “area with substrate ENLYGQS” value came to 0.0741. In addition, the “area with substrate ENLYHQS” value came to 0.0749, the “area with substrate ENLYIQS” value was determined as 0.122, the “area with substrate ENLYKQS” value was 0.0665 and the “area with substrate ENLYMQS” value is 0.0709. The “area with substrate ENLYNQS” value came out at 0.0699, the “area with substrate ENLYPQS” value came out at 0.0666, the “area with substrate ENLYQQS” value was found to be 0.0697 and the “area with substrate ENLYRQS” value turned out to be 0.0656. The “area with substrate ENLYSQS” value was 0.0772, the “area with substrate ENLYTQS” value was 0.0697, the “area with substrate ENLYVQS” value was determined as 0.0961 and the “area with substrate ENLYWQS” value is 0.0799.

As for MGESLFKGPRDYNPHSSSICHLTNESDGHTTSLYGIGFGPFIITNKHLFRRNNGTLVVQSLHGVFKVKDTTTLQQHLVDGRDMIIIRMPKDFPPFPQKLKFREPQREERICLVTTNFQTKSMSSMVSDTSCTFPSGDGIFWKHWIQTKDGQCGSPLVSTRDGFIVGIHSASNFTNTNNYFTSVPKNFMELLTNQEAQQWVSGWRLNADSVLWGGHKVFMVKPEEPFQPVKEATQL [I15H], the “area with substrate ENLYAQS” value is 0.0764, the “area with substrate ENLYDQS” value was found to be 0.051, the “area with substrate ENLYEQS” value was found to be 0.0698 and the “area with substrate ENLYHQS” value turned out to be 0.0767. Also, the “area with substrate ENLYIQS” value came out at 0.139, the “area with substrate ENLYKQS” value was 0.0575, the “area with substrate ENLYNQS” value came to 0.0726 and the “area with substrate ENLYPQS” value was determined as 0.0538. The “area with substrate ENLYQQS” value came out at 0.057, the “area with substrate ENLYRQS” value is 0.07, the “area with substrate ENLYSQS” value is 0.0635 and the “area with substrate ENLYVQS” value was determined as 0.13. The “area with substrate ENLYWQS” value amounted to 0.0824 and the “area with substrate ENLYYQS” value was found to be 0.0624.
